Results as given in the supplement of paper PMC10126150.
Sequences with one replicate were seen in a single cluster, so their values are uncertain.

System: ATP
Assay: switch fluorescence ratio, 500 uM ATP over buffer (Cy3 cluster intensity, sum of 5 cycles each) (fold (ratio)); higher = stronger signal-on switching upon ATP binding; sequences stand for … in TCGTCGGCAGCGTCAGATGTGTATAAGAGACAGTTTTTTTTTTTTTTTTTTTTTTTTT…TC
Conditions: aptamer strand: ATP DNA aptamer (quencher-CACCTGGGGGAGTATTGCGGAGGAAGG + anchor), 100 nM annealed; ATP concentration: 500 uM; one replicate
Outline: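 Between each of five buffer/ATP cycles, the flow-cell was stripped with NaOH and re-annealed. Each cycle imaged Cy3-labelled switching-strand clusters, annealed to 100 nM quencher-labelled ATP aptamer on a modified Illumina MiSeq flow-cell, first in selection buffer and then after 15 min with 500 uM ATP at 22 °C. The fluorescence ratio is summed target-cycle over summed buffer-cycle Cy3 intensity per cluster, averaged per switch-domain sequence, with clusters outside 100-1000 RFU excluded.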
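Further: ATP exposure 15 min at 22 °C before imaging.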

Sequence	switch fluorescence ratio
AAAAAACATG	1.02
AAAAAAGAAC	0.935
AAAAAAGATA	0.989
AAAAACAATA	0.971
AAAAACTCAT	0.99
AAAAAGATGT	0.948
AAAAATCTTC	0.975
AAAAATGGAT	1.01
AAAACAACTA	0.988
AAAACAAGTG	1.01
AAAACAGATT	1.03
AAAACAGCT	0.992
AAAACATCAT	1.05
AAAACGTTAT	1.05
AAAACTCGAC	1.12
AAAACTGGT	1.09
AAAACTGGTG	1.2
AAAACTTGTA	0.971
AAAACTTTCG	1.09
AAAAGATGAT	1.02
AAAAGCATTT	1.02
AAAAGCCTGA	1.06
AAAAGGAGGT	1.01
AAAAGGCAAA	0.997
AAAAGGCC	0.991
AAAAGGCTTA	1.02

Sequence	switch fluorescence ratio
AAAAGGGAAA	0.993
AAAAGTAATA	0.951
AAAAGTATAG	1.11
AAAAGTATCT	0.994
AAAAGTGTT	1.01
AAAATAGCGA	0.922
AAAATCCAGG	1.72
AAAATGCTCA	1.06
AAAATGGGG	1.01
AAAATGTGCC	0.995
AAAATGTGTA	0.981
AAACACAGAC	1.18
AAACACAGTA	1.12
AAACACGAAG	1.02
AAACACGCGA	1.24
AAACACTTCG	1.12
AAACAGACGA	1.25
AAACAGCTCT	1.04
AAACAGTACA	1.16
AAACAGTGGT	1.02
AAACCAGTGC	1.25
AAACCCGGCG	1
AAACCCTGTG	1.05
AAACCGACGG	1.03
AAACCGAGGG	0.983
AAACCTGAAG	1.79

Sequence	switch fluorescence ratio
AAACGAGAG	1.06
AAACGATATG	1.03
AAACGCAGTA	1.02
AAACGGTTGG	0.982
AAACGTGTAG	1.05
AAACTACCCG	0.978
AAACTACCTG	1.03
AAACTAGCTC	0.991
AAACTAGGCT	1.01
AAACTAGTCA	1.01
AAACTATGAC	1.09
AAACTCACTA	1.06
AAACTGTGTC	0.948
AAACTTATTG	0.973
AAAGAAATAC	1.42
AAAGAAATGG	0.963
AAAGACACT	1.02
AAAGACGTGT	1.02
AAAGACTGGG	1.02
AAAGAGATGT	0.979
AAAGAGGTCC	1.12
AAAGATAATA	1.04
AAAGATGCT	1.02
AAAGCCACAG	1.06
AAAGCCACTT	1.03
AAAGCGTGGG	1.18

Sequence	switch fluorescence ratio
AAAGCTGTGT	1.01
AAAGGAAAGC	1.05
AAAGGAATGA	0.996
AAAGGATAGA	1.02
AAAGGATCAC	1.02
AAAGGCACAG	0.981
AAAGGCACGG	1.07
AAAGGCACGT	1.17
AAAGGCCTAG	1.02
AAAGGGAGG	1.02
AAAGGGCATA	1.22
AAAGGGTAAA	1.07
AAAGGGTTCA	0.992
AAAGGTAAGA	1
AAAGGTAAGC	0.98
AAAGGTCAA	1.02
AAAGGTGCTT	1.05
AAAGTACGGA	1.18
AAAGTATGT	0.989
AAAGTCAAAT	1.03
AAAGTCCTCT	0.967
AAAGTCGTGA	0.982
AAAGTCGTGT	0.989
AAAGTGATCG	1.02
AAAGTGGTG	0.979
AAAGTTATGG	0.978

Sequence	switch fluorescence ratio
AAAGTTATTC	1.04
AAAGTTGGAG	1.01
AAAGTTTAAG	1.04
AAAGTTTCTA	0.992
AAATAATAGT	0.975
AAATAGACTT	1.09
AAATAGAGC	1.05
AAATAGTAAC	1.05
AAATATATAG	1
AAATATCGTG	0.987
AAATATTCGC	1.02
AAATCATCCA	0.989
AAATCGGTGC	0.97
AAATCGTGGT	0.963
AAATCTAGGA	0.999
AAATCTCTTG	1.02
AAATGAACGG	1.08
AAATGAAGAA	1.02
AAATGAATAC	1.14
AAATGACGCG	1.22
AAATGAGAGG	1.03
AAATGGCCGA	1.02
AAATGGCTCG	1.04
AAATGGGTGC	0.966
AAATGGTCTG	1.04
AAATGGTTAG	0.963

Sequence	switch fluorescence ratio
AAATGTGCAT	0.945
AAATGTGGA	1.02
AAATGTTGGA	1.01
AAATTAGAGA	0.991
AAATTATCAT	0.893
AAATTATCGC	1.06
AAATTATTG	0.955
AAATTATTTG	1.05
AAATTCATGA	0.985
AAATTCTTTG	0.995
AAATTGTTCT	0.97
AAATTTCACA	1.03
AAATTTGCCT	1.1
AAATTTTTAT	1.04
AACAAAAAAC	1.09
AACAACGGAA	1.07
AACAAGATGT	1.02
AACACAACG	1.16
AACACAGACC	1.13
AACACCAGCT	0.992
AACACCGGC	1.16
AACACCGTGT	1.03
AACACGAGGC	1.05
AACACGTTG	1.01
AACACTACCA	1.26
AACACTC	1.02

Sequence	switch fluorescence ratio
AACACTTAAA	1.06
AACAGAAACA	0.997
AACAGAGCCA	0.957
AACAGCCGGG	1.02
AACAGCCTGC	0.976
AACAGCGCTT	0.959
AACAGCGTAC	1.46
AACAGCTGCG	1.05
AACAGGACAA	1.08
AACAGGCTTT	0.982
AACAGGGGCC	1.02
AACAGGTCAG	0.995
AACAGTCAGA	1.03
AACAGTGTGG	0.984
AACATACCTG	1.14
AACATACGTT	1.1
AACATATCAA	1.01
AACATCACCG	1.21
AACATCAGCC	1.09
AACATGACTC	1.29
AACATGTGCC	1.03
AACATTCATA	1.02
AACATTGACA	1.17
AACCAAATCA	1.02
AACCAAATCC	1.1
AACCAACGCA	1.62

Sequence	switch fluorescence ratio
AACCACCCGT	1.04
AACCAGGAC	1.06
AACCAGTGAG	1
AACCATAGTT	0.944
AACCATGACC	1.09
AACCATGGAG	1.02
AACCATTTAT	0.97
AACCATTTGT	1
AACCCAGCGC	1.03
AACCCAGGAT	1.15
AACCCAGTTT	0.968
AACCCCGTGT	1.03
AACCCGGATG	1.08
AACCCTAAGC	1.02
AACCCTTGAA	0.979
AACCGAAGGG	0.979
AACCGAGCAT	1.8
AACCGCTTAG	1.28
AACCGCTTTC	3.51
